# Data as given in PubChem BioAssay AID1460 (National Center for Advancing Translational Sciences (NCATS), 2008).
# The campaign covered roughly 270,000 compounds. About 5,800 (2.1%) were called active. This list was built around the results that the source calls inconclusive (neither active nor inactive); the mix of calls is not that of the screen. The call rests on the fitted dose curve; in most records, active means well fitted inhibition curve with a large enough effect; inconclusive means small, poorly fitted or top-dose-only effect; inactive means flat fitted curve, though single readings scatter. Where the call is inconclusive, the potency comes from a doubtful curve fit.
# Molecular target: Microtubule-associated protein tau (Homo sapiens) (UniProt P10636)
# Assay: qHTS for Inhibitors of Tau Fibril Formation, Thioflavin T Binding; further: nearly all actives have a fitted effect of over 55% in size
# Settings: recombinant tau K18 P301L (four-repeat tau fragment), heparin-induced fibrillization, ThT fluorescence; series mostly up to 57.4 µM
# Method in brief: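 K18 P301L tau (15 uM + 0.24 uM Alexa 594-tagged), heparin 20 uM, NaOAc pH 7, 6 h 37 C; ThT 30 uM, 1 h RT, ex 450/em 510 nm.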
# Potency means the concentration at half of the fitted maximal effect; tags describe the fitted curve by direction and shape.
# Sequence of UniProt P10636 (P10636 whole entry, looked up): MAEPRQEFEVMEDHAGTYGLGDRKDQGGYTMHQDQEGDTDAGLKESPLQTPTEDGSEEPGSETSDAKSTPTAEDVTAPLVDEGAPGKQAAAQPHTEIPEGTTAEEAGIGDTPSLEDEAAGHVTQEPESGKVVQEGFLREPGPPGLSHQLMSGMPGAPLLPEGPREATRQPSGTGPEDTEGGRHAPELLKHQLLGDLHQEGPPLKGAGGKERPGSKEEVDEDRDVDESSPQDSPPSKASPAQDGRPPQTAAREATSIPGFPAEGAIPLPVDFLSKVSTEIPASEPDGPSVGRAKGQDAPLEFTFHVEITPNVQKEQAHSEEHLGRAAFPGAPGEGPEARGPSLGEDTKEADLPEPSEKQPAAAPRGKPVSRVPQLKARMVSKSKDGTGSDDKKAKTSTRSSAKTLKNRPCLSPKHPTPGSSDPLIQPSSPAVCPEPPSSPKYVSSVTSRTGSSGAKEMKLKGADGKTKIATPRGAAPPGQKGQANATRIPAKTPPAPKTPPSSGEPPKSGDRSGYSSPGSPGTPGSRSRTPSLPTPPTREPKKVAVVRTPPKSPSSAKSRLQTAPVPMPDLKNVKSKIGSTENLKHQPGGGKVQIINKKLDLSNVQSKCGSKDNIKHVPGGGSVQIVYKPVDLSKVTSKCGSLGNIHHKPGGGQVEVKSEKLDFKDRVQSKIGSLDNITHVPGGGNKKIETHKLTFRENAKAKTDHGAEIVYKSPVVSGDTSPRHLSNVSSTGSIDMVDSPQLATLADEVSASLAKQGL
row,Structure (SMILES),Potency
1,CC(=O)c1ccc(NC(=O)CCc2c(C)nc3c(c(C)nn3-c3ccc(C)cc3)c2C)cc1,"inconclusive: 10 µM [inhibitor, partial curve]"
2,CC(/C=C/c1ccc2c(c1)OCO2)=N\NC(=O)COc1ccccc1C,"inconclusive: 0.794 µM [inhibitor, full curve]"
3,COc1ccccc1NC(c1ccc(Cl)cc1)c1nnc(-c2cccc(F)c2)o1 (stereo not drawn),inactive
4,O=C(CSc1nnc(-c2cccnc2)o1)c1cc2ccccc2oc1=O,"inconclusive: 12.6 µM [inhibitor, partial curve]"
5,COc1cc(/C=N/N=C(\N)c2nonc2N)cc(OC)c1O,"inconclusive: 14.1 µM [inhibitor, partial curve]"
6,COc1cccc(CN2CCN(C3CCN(c4ccccc4C)CC3)CC2CCO)c1 (stereo not drawn),inactive
7,CCN(CC)CCSC(=O)C(c1ccccc1)c1ccccc1,"inconclusive: 39.8 µM [inhibitor, single point]"
8,O=C(NC12CC3CC(CC(C3)C1)C2)c1ccc(-c2ccc(Br)cc2)o1,inactive
9,O=[N+]([O-])c1cc(/C=N/NC(=S)Nc2ccccc2Cl)ccc1Cl,"inconclusive: 3.16 µM [inhibitor, full curve]"
10,S=C(Nc1cccc2ccccc12)NC1CCCCC1,inactive
11,O=C(NC1CC1)c1cccc(Nc2ccc(-c3ccc4c(c3)OCCO4)nn2)c1,"inconclusive: 2.82 µM [inhibitor, full curve]"
12,CCc1nnc(NC(=O)C2CCCCC2)s1,inactive
13,COc1ccc(OC)c(NC(=O)c2cc3c(n(-c4ccc(Cl)cc4)c2=O)CC(C)(C)CC3=O)c1,inactive
14,CC(=O)Nc1ccc(Oc2cnc3ccccc3n2)cc1,inactive
15,CC(C)(C)N=C1C([N+](=O)[O-])=CC=C2C1=NC1(CCCCC1)N2O,inactive
16,Cc1cccc(NC(=S)N(Cc2cccs2)Cc2cc3cc(C)cc(C)c3[nH]c2=O)c1,inactive
17,COC(=O)N/N=C/c1sc(N2CCCCC2)nc1-c1cccs1,"inconclusive: 11.2 µM [inhibitor, partial curve]"
18,COc1ccc(/C=N/NC(=O)c2cccc(C(F)(F)F)c2)cc1,"inconclusive: 3.16 µM [inhibitor, full curve]"
19,O=S(=O)(NCc1cccc(C(F)(F)F)c1)NCc1ccccc1F,inactive
20,Cc1nc(S/C(=C/c2ccc(-c3ccc(Cl)cc3)o2)C(=O)O)n[nH]1,active: 2 µM
21,O=C1NN(c2ccc(F)c(Cl)c2)C(=O)/C1=C\c1cccc(OC(=O)c2cccs2)c1,active: 20 µM
22,O=C(c1cc([N+](=O)[O-])ccc1N1CCCCC1)N1CCc2ccccc21,"inconclusive: 17.8 µM [inhibitor, single point]"
23,Cn1c(SCc2ccccc2)nnc1-c1ccco1,inactive
24,Cc1nnc(NCCc2ccccc2)n(N)c1=O,inactive
25,CCOC(=S)N/C(=N\S(=O)(=O)c1ccccc1)c1ccccc1,inactive

row,Structure (SMILES),Potency
1,Nc1c(NCc2ccccc2F)c(=O)[nH]c(=O)n1Cc1ccccc1,"inconclusive: 31.6 µM [inhibitor, partial curve]"
2,Clc1cccc(/C=N/Nc2ncnc3ccccc23)c1,"inconclusive: 22.4 µM [inhibitor, partial curve]"
3,CCOC(=O)c1ccccc1NC(=O)C1CCN(c2ncnc3c2nc2n3CCCCC2)CC1,"inconclusive: 17.8 µM [inhibitor, partial curve]"
4,CC(C)C(=O)NC(=S)Nc1ccccc1C(=O)Nc1ccccc1,inactive
5,O=C(O)c1ccccc1NC(=O)N1CCOCC1,"inconclusive: 11.2 µM [inhibitor, partial curve]"
6,CCOc1ccc(C(=O)/C=C/c2cn(CC(O)CN3CCCCCC3)c3ccccc23)cc1 (stereo not drawn),active: 12.6 µM
7,COC(=O)[C@@]1(Cc2ccc(OC)cc2)[C@H]2c3cc(C(=O)N(C)C)n(Cc4cc(F)c(F)c(F)c4)c3C[C@H]2CN1C(=O)c1ccccc1,inactive
8,Cc1cccc(C)c1Nc1c(-c2ccccc2F)nc2cccc(C)n12,"inconclusive: 25.1 µM [inhibitor, partial curve, poor fit]"
9,COc1cccc(-n2nnnc2SCC(=O)NCCc2ccc(OC)c(OC)c2)c1,"inconclusive: 39.8 µM [inhibitor, single point]"
10,CCOC(=O)C1CCN(C(=O)c2ccc(Br)o2)CC1,inactive
11,COc1ccc(OCC(=O)Nc2nnc(S(=O)(=O)N3CCc4ccccc43)s2)cc1,"inconclusive: 1.58 µM [inhibitor, full curve]"
12,CN(Cc1ccccc1)S(=O)(=O)c1ccc(Cl)nc1,inactive
13,Cc1cc(C)c(S(=O)(=O)Nc2ccc(-c3ccc(N4CCC(C)CC4)nn3)cc2)cc1C,"inconclusive: 1.12 µM [inhibitor, full curve]"
14,CC1CCN(c2cc(N3CCOCC3)c(F)cc2[N+](=O)[O-])CC1,"inconclusive: 39.8 µM [inhibitor, partial curve]"
15,N#CCCN/N=C(/Cc1nc2ccccc2[nH]1)c1ccc(Cl)cc1,"inconclusive: 31.6 µM [inhibitor, partial curve]"
16,O=C(Nn1c(O)c(C=C2N=c3ccccc3=N2)sc1=S)c1ccc(Cl)cc1,active: 11.2 µM
17,C#CCn1c(C2CC(=O)N(c3ccc(OC)cc3)C2)nc2ccccc21 (stereo not drawn),inactive
18,Cc1cc(/C=C2\SC(=S)NC2=O)c(C)n1C,"inconclusive: 15.8 µM [inhibitor, partial curve]"
19,CN1CCN(C2(CNC(=O)c3ccc(C(C)(C)C)cc3)CCCCC2)CC1,inactive
20,CC(c1ccccc1)N1CCn2c(nc3cc(NC(=O)NC4CCCCC4)ccc32)C1 (stereo not drawn),"inconclusive: 15.8 µM [inhibitor, partial curve]"
21,Cc1ccccc1CS(=O)(=O)Cc1ccc(C(=O)NCCCN2CCOCC2)o1,inactive
22,CCOC(=O)c1sc(NC(=O)CSc2nc(O)c(Cc3ccccc3)c(=O)[nH]2)nc1C,"inconclusive: 28.2 µM [inhibitor, partial curve]"
23,CC1CN(c2ccc(Cl)cc2)c2nc3c(c(=O)n(CC(=O)O)c(=O)n3C)n2C1 (stereo not drawn),inactive
24,COc1ccc(N2CCN(C(=O)CCCn3c(=S)[nH]c4cc5c(cc4c3=O)OCO5)CC2)cc1,"inconclusive: 0.708 µM [inhibitor, full curve]"
25,COc1cccc(-c2cc(C(=O)Nc3c(C)nn(Cc4ccccc4Cl)c3C)no2)c1,inactive

row,Structure (SMILES),Potency
1,C=CCn1c(SCC(=O)NC(=O)NCc2ccco2)nc2sc(C)c(C)c2c1=O,inactive
2,Cc1ccc(NC(=S)NNC(=O)c2ccc(N3CCOCC3)c([N+](=O)[O-])c2)cc1C,"inconclusive: 15.8 µM [inhibitor, partial curve]"
3,Cc1cc(C)c[n+](-c2[nH]c(=O)sc2/C=N/NC([S-])=Nc2ccccc2)c1,"inconclusive: 28.2 µM [inhibitor, single point]"
4,CN1CCN(C(=O)c2ccc(CN(c3ccccc3)S(=O)(=O)c3ccccc3)cc2)CC1,inactive
5,COc1ccc2[nH]c(=O)c(CN(C(=O)c3cccc(Cl)c3)c3ccccc3C)cc2c1,inactive
6,COc1ccc(-n2c(=O)c(CCC(=O)N(C)Cc3ccccc3C)nc3ccccc32)cc1,"inconclusive: 17.8 µM [inhibitor, single point]"
7,CCCc1cc(=O)oc2cc(OCC(=O)N3CCc4ccccc43)ccc12,"inconclusive: 0.891 µM [inhibitor, full curve]"
8,Clc1ccc(-c2nc3cnccn3c2Nc2ccc3c(c2)OCO3)cc1,"inconclusive: 12.6 µM [inhibitor, partial curve]"
9,O=C(NCCC1=CCCCC1)C1CCN(C(=O)Cc2ccccc2)CC1,inactive
10,Cc1ccc(-c2c(C#N)c(N)n3c(nc4ccccc43)c2C#N)cc1,"inconclusive: 15.8 µM [inhibitor, partial curve]"
11,Cn1cc(SCC(=O)N2CCCc3ccccc32)c2ccccc21,"inconclusive: 28.2 µM [inhibitor, partial curve]"
12,CC(C)CC(=O)N1CCN(C(=O)CCC2CCCC2)CC1,inactive
13,Cc1ccc(-n2c(C3CC3c3ccc(Cl)cc3)n[nH]c2=S)cc1 (stereo not drawn),"inconclusive: 44.7 µM [inhibitor, single point]"
14,CCn1cc(C(=O)OCC(=O)NCc2ccc3c(c2)OCO3)c(=O)c2ccc(C)nc21,"inconclusive: 39.8 µM [inhibitor, single point]"
15,COc1ccccc1C1CCCN1Cc1nc(-c2cc3c(cc2Cl)OCO3)oc1C (stereo not drawn),"inconclusive: 25.1 µM [inhibitor, single point]"
16,Cc1ccc(C(=O)NC(C#N)=C(Cl)Cl)cc1,active: 25.1 µM
17,CCCCCN1C(C(=O)c2ccccc2)=C(NC(=O)c2ccc(OC)cc2)c2ccccc2S1(=O)=O,inactive
18,COc1ccccc1C(=O)Oc1c(Sc2ccccc2)c(C)nn1C(C)(C)C,"inconclusive: 20 µM [inhibitor, single point]"
19,c1ccc(-c2ccc(-c3nc(-c4ccncc4)no3)cc2)cc1,"inconclusive: 1.78 µM [inhibitor, full curve]"
20,Cc1nn(C)c(C)c1NC(=O)CSc1nc(-c2ccccc2Cl)nc2c1cnn2-c1ccccc1,"inconclusive: 17.8 µM [inhibitor, partial curve]"
21,COc1cc(NS(=O)(=O)c2ccc(NC(=S)NC(=O)/C=C/c3ccco3)cc2)ncn1,"inconclusive: 20 µM [inhibitor, single point]"
22,COc1ccc(CNc2nc(SCc3ccc(Cl)cc3)nc3ccccc23)cc1,inactive
23,O=C(/C=C/c1ccccc1)N1CCC(c2ccccc2)C1 (stereo not drawn),"inconclusive: 25.1 µM [inhibitor, single point]"
